Assay results from ChEMBL document CHEMBL4888484, “Replenishing the malaria drug discovery pipeline: Screening and hit evaluation of the MMV Hit Generation Library 1 (HGL1) against asexual blood stage Plasmodium falciparum ,using a nano luciferase reporter read-out” (2022).
The campaign covered roughly 4,800 compounds. About 420 (8.8%) showed an effect of 50% or more. This is one part of the list.

These compounds were tested on Plasmodium falciparum (assay: Confirmatory screen in NF54 nanoGlo assay, in single point, at 2uM, 72h). Conditions: timepoint 72 hour.
Assay type: functional, Erythrocyte

SMILES	% Inhibition [%]
CC(=O)NCCNC(=O)Nc1ccccc1N(C)C1CCCC1	-11
Cc1ccc(NC(=O)CC(=O)O)c(C)c1	-5
Cn1c(=O)c2c(c(-c3ccccc3)cn2C)n(CC(=O)Nc2cc(Cl)cc(Cl)c2)c1=O	-12
COc1ccc2cc(S(=O)(=O)n3ccc(C)n3)ccc2c1	-2
Cc1cc(=O)[nH]c(-n2nc(C3CC3)cc2NC(=O)C(C)(C)Oc2ccc(Cl)cc2)n1	85
O=C(CN1N=C(C(=O)Nc2ccccc2)CCC1=O)Nc1ccc(OC(F)(F)F)cc1	-12
COc1ccc(Oc2nccc(-c3ccc(F)cc3)c2C#N)cc1	-3
COc1cc2c(cc1CNc1nc(N)nc3c1CCNCC3)CCC2	21
CN(CCN(C)C1CC1)C(=O)c1cc2[nH]cnc2cc1F	7
CC(C)(C)C(=O)Nc1cc(Br)c(O)c(Br)c1	3
CCOC(=O)c1oc(NC(=O)OC(C)(C)C)nc1C(F)(F)F	-5
Cc1cc2ncc(-n3cncn3)c(-c3ccccc3)n2n1	-5
O=C(NC1CCN(Cc2ccco2)CC1)c1ccco1	-9
O=C(N[C@@H]1CC=C(c2ccc(F)cc2)CC1)c1nc2n(n1)CCCN2	11
COc1ccc(C2C(C(=O)O)c3ccccc3C(=O)N2C2CCCCC2)cc1 (centres undefined)	-3
CCOc1ccccc1NC(=O)C[C@H]1CCc2nnc(C3CCCC3)n2CC1	-1
COc1ccc(C2CC(c3ccccc3)N(C(C)=O)c3ncnn32)cc1 (centres undefined)	-9
Cc1ccc(-c2cc(C(=O)Nc3nnc(C(C)C)s3)no2)cc1F	39
COc1ccc(C(=O)C[n+]2cc(-c3ccc(OC)cc3)n3c2CCCC3)cc1	60
O=c1[nH]c(=O)n(S(=O)(=O)c2ccccc2)cc1F	92
COc1ccc(CNC(=O)[C@H](C)n2ccc3cc(S(=O)(=O)N4CCCC4)ccc32)cc1OC	0
CC(C)N(C(=O)CCN1C(=O)CCC1=O)c1ccccc1Br	-19
N#Cc1ccc(C(=O)N[C@H]2CCCc3c2cnn3-c2ccccn2)cc1	2
CC1(C)OCc2cc(CNc3ccc4oc(=O)[nH]c4c3)ccc2O1	93
O=C(C1CC12CCCC2)N1CCCC(S(=O)(=O)N2CCc3ccccc32)C1 (centres undefined)	5
O=C(C#Cc1ccc(C(F)(F)F)cc1)NCC1(CO)CCC1	8
CC(C)C(NC(=O)c1ccccc1F)C(=O)NC1CCC(N(C)C)C1 (centres undefined)	-16
Cc1cccc(-n2c(=O)[nH]c3nc(NCCN(C)C)ncc3c2=O)c1C	-4
Cc1ccc(F)cc1-n1c(=O)c2sccc2n(CC(=O)Nc2ccc3c(c2)CCC3)c1=O	13
